# Measurements reported in PubChem BioAssay AID886 (National Center for Advancing Translational Sciences (NCATS), 2007).
# Among all 73,000 compounds or so, about 2,500 (3.4%) were called active. The shares of active, inactive and inconclusive entries below differ from those in the screen. The call rests on the fitted dose curve; in most records, active means well fitted inhibition curve with a large enough effect; inconclusive means small, poorly fitted or top-dose-only effect; inactive means no such curve, though single readings can be large or run the other way. Where the call is inconclusive, the potency comes from a doubtful curve fit.
# Molecular target: 3-hydroxyacyl-CoA dehydrogenase type-2 (Homo sapiens) (UniProt Q99714)
# Assay: qHTS Assay for Inhibitors of HADH2 (Hydroxyacyl-Coenzyme A Dehydrogenase, Type II); further: nearly all actives have a fitted effect of over 60% in size
# Details: recombinant HADH2, NADH fluorescence, beta-hydroxybutyryl-CoA; activity change, negative = inhibition: at 57.1 µM (top of the series)
# Outline: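 Buffer 100 mM Tris-HCl pH 9.0/0.01% Tween-20; HADH2 20 nM; NAD+ 1 mM; beta-hydroxybutyryl-CoA 90 uM (all final). 15 min cpd preincubation, RT.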
# On the % scale 0 is the no-effect control and ±100 the full control effect; potency means the concentration at half of the fitted maximal effect; tags describe the fitted curve by direction and shape.
# UniProt Q99714, sequence (Q99714 whole entry, looked up): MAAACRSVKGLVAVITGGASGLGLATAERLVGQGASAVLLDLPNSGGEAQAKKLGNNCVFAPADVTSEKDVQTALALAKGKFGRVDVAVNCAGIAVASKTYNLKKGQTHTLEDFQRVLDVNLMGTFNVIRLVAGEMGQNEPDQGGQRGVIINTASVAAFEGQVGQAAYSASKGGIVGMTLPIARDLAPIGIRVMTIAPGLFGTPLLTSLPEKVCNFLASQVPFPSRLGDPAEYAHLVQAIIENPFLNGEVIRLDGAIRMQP
# UniProt Q99714, sequence (Q99714 whole entry, looked up): as above
SMILES,"activity change, negative = inhibition",Potency
Cc1cc(C(=O)Nc2cnn(Cc3ccc(Cl)cc3Cl)c2)no1,inactive: 12.6%,
CCOC(=O)c1cccc(NC(=O)CSc2nc3ccccc3c(=O)n2CCOC)c1,inactive: 2.73%,
CCOC(=O)c1ccn(-c2nc(-c3ccco3)cc(C(F)(F)F)n2)n1,,"inconclusive: 31.6 µM [inhibitor, single point]"
CC(C)CN1CCCC2(CCN(C(=O)c3cc(C(F)(F)F)cc(C(F)(F)F)c3)CC2)C1,inactive: 3.66%,
FC(F)(F)c1nc2nc(Cl)c(Cl)nc2n1CCCN1CCOCC1,,"inconclusive: 3.16 µM [inhibitor, single point]"
C#CCCCO/N=C1/C[C@@H](O)[C@@H](O)[C@@H]2[C@@H]3C(=O)N(C[C@@H]4CCCO4)C(=O)[C@H]3CC[C@H]12,,"inconclusive: 7.94 µM [inhibitor, single point]"
COCCn1c(=O)c(-c2cc(F)cc(F)c2)nc2cnc(Oc3cccc(Cl)c3)nc21,,"inconclusive: 25.1 µM [inhibitor, single point]"
COc1ccc(-c2noc(CCCc3ccccc3)n2)cc1OC,inactive: 0.861%,
C=CCSC1=C(C#N)C(c2ccccc2OCC)C(C#N)C(=O)N1 (stereo not given),,"inconclusive: 39.8 µM [inhibitor, single point]"
C[C@@]12CC[C@@H]3[C@H](CCC4=CC(=O)CC[C@]43C)[C@@H]1CC[C@@H]2C(=O)COS(=O)(=O)c1ccc(Br)cc1,inactive: -21.1% [at 11.4 µM],
C[C@@H](SCc1ccccc1)C(=O)O,inactive: 4.85% [at 11.4 µM],
O=c1c2c(nc3nc(Cc4ccccc4)[nH]n13)CCC2,inactive: -0.722%,
O=c1nc(-c2ccccc2)cc(-c2ccccc2)[nH]1,,"inconclusive: 7.94 µM [inhibitor, single point]"
CCNc1cc2oc(=O)c(CN3CCOCC3)c(C)c2cc1C,,active: 0.794 µM
Cc1cccc(CNc2ccnc(-c3cccnc3)n2)c1,,"inconclusive: 31.6 µM [inhibitor, single point]"
COC(=O)c1cccc(NC2CC(=O)N(c3ccc(OC)c(OC)c3)C2=O)c1 (stereo not given),inactive: -2.73%,
COc1cccc(Nc2ncc3nc(-c4ccccc4)c(=O)n(Cc4cccs4)c3n2)c1,inactive: 2.44%,
CCN(CC)S(=O)(=O)c1csc(C(=O)NCc2ccccc2)c1,inactive: 9.16%,
COc1ccc(CN2CCC(C(=O)N3CCN(c4ccccc4F)CC3)CC2)cc1OC,inactive: 4.14%,
Cc1ccc(NC(=O)Nc2cccs2)cc1,,active: 15.8 µM

SMILES,"activity change, negative = inhibition",Potency
C=CCSc1nc2c(c(=O)[nH]c(=O)n2C)n1CC,,"inconclusive: 12.6 µM [inhibitor, partial curve]"
CC[C@@H]1Cn2c(c3nc(-c4ccccc4)nc-3n(C)c2=O)N1,,"inconclusive: 25.1 µM [inhibitor, single point]"
COc1ccc(Cl)cc1NC(=O)c1ocnc1C,,"inconclusive: 25.1 µM [inhibitor, partial curve]"
O=C1CC(c2ccccc2)Cc2nc(N3CCc4ccccc43)ncc21 (stereo not given),,active: 12.6 µM
CCCn1c(-c2ccc(OC)cc2)nc2nc3ccccc3nc21,,"inconclusive: 6.31 µM [inhibitor, single point]"
Cn1c(=O)c2[nH]c(-c3ccc(S(=O)(=O)O)cc3)nc2n(C)c1=O,,active: 1 µM
NNC(=O)CCSc1ccccc1,inactive: 5.71% [at 11.4 µM],
CCOC(=O)c1[nH]c2ccccc2c1NC(=O)CN1CCCCC1,inactive: 1.48%,
O=C(c1cc2c(=O)oc3ccccc3c2s1)N1CCOCC1,inactive: 4.75%,
C=C(C)c1cccc(C(C)(C)NC(=O)NCC2COCCO2)c1 (stereo not given),inactive: 6.2%,
Clc1ccccc1Cn1nnc2c(Nc3ccccc3)ncnc21,,"inconclusive: 39.8 µM [inhibitor, single point]"
CCCC[C@@H]1C[C@H]1C(NC(=O)c1cccs1)c1ccc(C(F)(F)F)cc1 (stereo not given in full),inactive: -2.43%,
O=C(CSCc1ccc(Br)cc1)N1CCOCC1,,"inconclusive: 10 µM [inhibitor, partial curve]"
O=c1c2c(nc3c(-c4ccc(Cl)cc4)c[nH]n13)CCCC2,,active: 15.8 µM
O=C(O)C/C=C\CC(=O)O,inactive: 9.47% [at 11.4 µM],
Cn1c(=O)oc2cc(S(=O)(=O)N3CCCC(C(=O)Nc4ccc5c(c4)OCCO5)C3)ccc21 (stereo not given),,"inconclusive: 39.8 µM [inhibitor, single point]"
COc1ccc(Br)cc1C1CC(=O)N2CN(C)CSC2=C1C#N (stereo not given),,active: 2 µM
Cn1cc(/C=N/n2cnc3scc(-c4ccccc4)c3c2=O)c2ccccc21,,active: 3.16 µM
COc1ccc2nc(SCC(=O)Nc3ccc(S(=O)(=O)N4CCCC4)cc3)c(C#N)cc2c1,inactive: -15.7%,
COc1ccc(CCNC(=O)Cn2nnc(-c3ccc(N4CCOCC4)cc3)n2)cc1OC,,"inconclusive: 39.8 µM [inhibitor, single point]"
